# Data published in the BET-seq Pho4 binding data (Le et al. 2018).
# This is one part of the list. The energies were worked out here from pooled read counts, against the library average; single values are noisy.
# Target: T1, Pho4 (S. cerevisiae) (UniProt P07270)
# T1 sequence: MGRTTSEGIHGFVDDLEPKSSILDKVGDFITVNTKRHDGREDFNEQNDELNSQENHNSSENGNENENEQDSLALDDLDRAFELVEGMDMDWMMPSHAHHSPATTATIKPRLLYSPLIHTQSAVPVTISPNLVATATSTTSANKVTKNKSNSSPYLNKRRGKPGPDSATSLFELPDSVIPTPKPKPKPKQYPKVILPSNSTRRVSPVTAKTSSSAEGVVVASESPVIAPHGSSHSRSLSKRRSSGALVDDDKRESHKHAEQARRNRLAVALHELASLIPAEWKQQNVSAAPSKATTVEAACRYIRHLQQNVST
# Assay: relative binding free energy (BET-seq); higher = weaker binding
# Conditions: reference: library average
row,Sequence,relative binding free energy [kcal/mol]
1,TATTCCACGTGGGGCG,0
2,TTCGTCACGTGAGTAG,0.22
3,GAGTGCACGTGCTGGA,0.1
4,ATATTCACGTGCGGAT,0.16
5,GGTTACACGTGGTGGG,0.14
6,GCTTTCACGTGGCGTT,0.27
7,ATACACACGTGGTTGG,-0.13
8,TTGGTCACGTGGCAGG,0.12
9,GGAGACACGTGGTCGG,-0.06
10,TTAGTCACGTGTTCGA,0.11
11,GTTATCACGTGATATA,0.24
12,TGTAACACGTGCGGTG,0.04
13,ATGGTCACGTGAAAAT,0.45
14,TTAATCACGTGGTCAG,0
15,ACGTTCACGTGGGTTC,0.15
16,TAGTTCACGTGACGGG,0.29
17,GTTGACACGTGACGGT,0.09
18,GTGCACACGTGTGGTT,0.15
19,GGGATCACGTGGAAAT,0.23
20,GTTTCCACGTGATTTT,0.27
21,GTTTGCACGTGTGTGC,0.18
22,TGTGGCACGTGCAAGA,-0.15
23,AGGTGCACGTGTAACT,0.01

row,Sequence,relative binding free energy [kcal/mol]
1,GTGTGCACGTGAGTGT,0.27
2,ATATCCACGTGTGGGT,-0.22
3,CGTTACACGTGTGTAA,0.2
4,GGCAGCACGTGGGGCT,-0.14
5,CGGGCCACGTGTTGGT,-0.2
6,CTCGTCACGTGGTAGG,0.02
7,ACAGGCACGTGGTGGT,-0.15
8,TTTGTCACGTGAACGC,0.29
9,GGGCTCACGTGTTAGA,0.27
10,GTTTCCACGTGTATTG,0.05
11,GTCTTCACGTGAGGGG,0.34
12,AAAGGCACGTGGCTGT,-0.3
13,AATGTCACGTGGTAGC,0.14
14,GCAATCACGTGTGGGG,0.2
15,TCTTGCACGTGTCGGG,0.12
16,ATATACACGTGATGAG,0.16
17,AGTAGCACGTGAAGGG,0.2
18,CGGTTCACGTGTGAAT,0.32
19,TTTCGCACGTGTTTTT,0.05
20,GCTGGCACGTGGGATT,-0.14
21,TAACGCACGTGTATGT,-0.14
22,ATTTTCACGTGCTGCG,0.24
23,TTCTTCACGTGTGGAT,0.4

row,Sequence,relative binding free energy [kcal/mol]
1,TGGTGCACGTGACGCG,-0.04
2,AATGACACGTGAGTTG,0.23
3,ATATGCACGTGTGCGG,-0.03
4,AGGGGCACGTGTTCGG,-0.16
5,TATGACACGTGCTAGG,-0.05
6,TATATCACGTGGGCTA,-0.07
7,ATTTACACGTGGTAAT,0.05
8,TTTACCACGTGGTGTG,-0.13
9,CAGTTCACGTGTAGGG,0.17
10,CGGGGCACGTGCAATG,-0.02
11,GGGAACACGTGTTTGT,0.09
12,ATTCTCACGTGATTTG,0.34
13,AGGTTCACGTGAGTCG,0.32
14,AAGTACACGTGTATAG,0.06
15,TTTTGCACGTGTATAG,0.08
16,GATATCACGTGGGCGA,0.21
17,AAGGCCACGTGGGGGC,-0.31
18,GTCAGCACGTGTTTGT,-0.03
19,AATGCCACGTGTAGGG,-0.12
20,GTTGTCACGTGATAAA,0.14
21,GGGGACACGTGAATAT,0.28
22,TACAGCACGTGGGTAG,-0.2
23,AGGATCACGTGGTGCA,0.05

row,Sequence,relative binding free energy [kcal/mol]
1,TGAAGCACGTGTGTTG,-0.01
2,GGGCACACGTGGAGGA,-0.02
3,TTAGACACGTGGGTAC,-0.11
4,AAGGGCACGTGCGGCG,-0.21
5,GTTAGCACGTGTGGAG,0.09
6,GGGAGCACGTGCGTTG,-0.16
7,ATTAACACGTGATTAT,0.12
8,AGGGCCACGTGTCGGG,-0.11
9,AGTTTCACGTGGTGCG,0.29
10,GGGTCCACGTGTCTGG,0.09
11,AGTGGCACGTGTAGTG,-0.07
12,TATGTCACGTGTGTGT,0.22
13,ACTGGCACGTGCGGTT,-0.01
14,AAAATCACGTGAGTGG,0.3
15,ATTAGCACGTGGCGGA,-0.09
16,TTGGGCACGTGCATCT,-0.11
17,TATTGCACGTGGTACA,-0.15
18,TACGGCACGTGTTTTG,0.05
19,ATAAACACGTGATGGT,0.06
20,TTAGGCACGTGGGAAA,-0.04
21,TGGGTCACGTGAGACT,0.4
22,GTTCTCACGTGTTGGA,0.27
23,TTTTACACGTGCGGCT,0.06

row,Sequence,relative binding free energy [kcal/mol]
1,AAGTTCACGTGGTAAG,0.12
2,GGTTACACGTGTAGTG,0.18
3,GTAGCCACGTGGTTAG,-0.19
4,TCGTGCACGTGTGGTG,0.01
5,GGAGACACGTGCAGGT,0.01
6,GCGTACACGTGGGGTG,0.01
7,CTTGTCACGTGGTGAG,0.1
8,AATTCCACGTGGGGTG,-0.12
9,TTGCGCACGTGTTTTT,-0.07
10,ATGTTCACGTGGTAAT,0.17
11,TTAGTCACGTGATGCT,0.16
12,AGTTCCACGTGGCGGG,0.09
13,TAGCACACGTGGGGGG,-0.18
14,AGCGTCACGTGGGGGT,-0.17
15,GGGAGCACGTGAGGTA,0.06
16,AACGGCACGTGGGGAG,-0.13
17,AAATGCACGTGGTTGT,-0.08
18,TTTATCACGTGATGCA,0.18
19,GGTGGCACGTGGTTAA,-0.01
20,AGTTGCACGTGCGGAT,-0.15
21,TTTACCACGTGATGTT,0.11
22,GGTGCCACGTGGTGGA,-0.19
23,GGTAACACGTGATCGT,0.29
